From a collection of fitness landscapes (doi:10.1016/j.celrep.2020.107928)
The full ranking holds about 81,000 sequences; the median of “one-hybrid fitness for binding NBS DNA” is about -0.1, and the highest 2% start at about 0.36. The list shows a part of the results.

B1: Caulobacter ParB omega fusion; a variant is named by its letters at X, in order, B8GW30 (parent)
chain: MESVVVGEPGMSEGRRGLGRGLSALLGEVDAAPAQAPGEQLGGSREAPIEILQRNPDQPRRTFREEDLEDLSNSIREKGVLQPILVRPSPDTAGEYQIVAGERAWRAAQRAGLKTVPIMVRELDDLAVLEIGIIENVQRADLNVLEEALSYKVLMEKFERTQENIAQTIGKSXSHVANXMRLLXLPDEVQSYLVSGELTAXHARAIAAAADPVALAKQIIEGGLSVRETEALARKAPNLSAGKSKGGRPPRVKDTDTQALESDLSSVLGLDVSIDHRGSTGTLTITYATLEQLDDLCNRLTRGI

Variants of: B1
Test: one-hybrid fitness for binding NBS DNA (the Noc-binding site; scaled: cognate 1, non-cognate 0); higher = stronger binding
Settings: with NBS DNA site
How it was run: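 Selection: bacterial one-hybrid in E. coli USO, HIS3 reporter with the site 19 bp from the promoter, 48 hours at 37°C on M9-minus-histidine plus 0.1 mM IPTG and 5 mM 3-AT. Libraries were Caulobacter ParB with four randomised specificity codons, sequenced on Illumina before and after selection. Fitness is the rescaled log change in variant-to-wild-type read ratio, anchored to the cognate and non-cognate sites.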

one-hybrid fitness for binding NBS DNA, 0.249:
QRCP

one-hybrid fitness for binding NBS DNA, 0.436:
QVHR

one-hybrid fitness for binding NBS DNA, 0.336:
QSIR

one-hybrid fitness for binding NBS DNA, 0.673:
QLKT
RLRR

one-hybrid fitness for binding NBS DNA, 0.226:
QTGK

one-hybrid fitness for binding NBS DNA, 0.295:
PFQR

one-hybrid fitness for binding NBS DNA, 0.303:
DTRR

one-hybrid fitness for binding NBS DNA, 0.403:
QMWR

one-hybrid fitness for binding NBS DNA, 0.738:
RMKR

one-hybrid fitness for binding NBS DNA, 0.335:
QRIH

one-hybrid fitness for binding NBS DNA, 0.237:
VKKR

one-hybrid fitness for binding NBS DNA, 0.248:
QTHC

one-hybrid fitness for binding NBS DNA, 0.571:
RAKS

one-hybrid fitness for binding NBS DNA, 0.469:
KRLT

one-hybrid fitness for binding NBS DNA, ≤ 0.2:
EEHG
RMSH
PALS
RKGG
TAAY
QPLT
ANLS
RQTC
IKVR
FPYR
DCHS
KRTL
LQYG
CTLE
IDPK
CQVF
PMLE
GESN
VPHE
WNTG
QVPT
DAVL
TLMI
IPLK
LLRC
NRIH
KIIS
TAID
QMSN
YIPE
QNSQ
TPKF
VAWF
SMLR
VDAN
TLRP
ATAC
YRRK
TSRH
NAQR
WNTN
WTSC
TYHR
SKQT
MARP
KPRT
IFWR
LPNM
QMGI
MKLT
VHES
MDVT
VHPL
CRNN
RFFV
IVMR
PYDL
MMSS
KDIS
VAVF
ILFV
QKSN
TWTG
PPQD
SIEC
RCPA
MCTL
REAM
EISE
MYLT
RWFA
NKTC
TSHV
ADPI
DIRR
DSCK
QYIL
EPWS
KYDL
KRDV
NYLV
DILT
HCSM
SMRV
TPSN
FTLG
LSLL
CTRG
RPHT
VCLR
RFNL
EFTH
VGHV
QHYE
NHWV
SLRY
RLFW
PWSS
QSSA
DPPP
LGPS
CRSV
KICK
CLEG
PTNK
ALPS
NKGR
NTRY
LLHN
EWNI
ATQG
IVMP
LQWR
QRIF
APAS
KCTG
YTSA
ETQG
YCTF
ATGN
WQES
WMVY
NFEG
SITH
CAQD
AKYK
NYTS
YRAG
YAYR
ACVG
FFNG
PAKL
DYQS
RGGI
CRRK
AWGC
QRLL
DVTE
ALVR
TNGD
NFRN
GSDT
DSRR
TPDL
PAHD
ALFN
QVIH
SQTY
QPMT
WAHD
PRCH
NLQI
ISQE
TVRM
MDME
RMCI
RSIN
ANHD
PVKN
CVNR
DMGM
VKRI
HTYG
LRWN
QPHV
FPIE
DQPH
WFVC
RNYV
YSNK
CVDN
MYLR
CPPW
NMHI
AKPT
CNVS
SHVF
AHSV
RMTE
RWMY
EYYV
PLFG
ITAT
ATTN
RFSP
GYLD
QVDA
DTKA
VWDM
MIIC
AVMH
MCMN
VAAW
CVCG
QISH
PKHI
IPRY
VDRS
AAYA
FLDY
FLIG
RAHW
IMNL
HNYQ
HDND
RDWG
HKLC
HTIP
LSKY
PPLV
LNPN
QEKL
ACPC
AGSM
YGCR
QFYL
PSPV
ADHF
RFKV
QTIE
CLFS
KQNG
KHNA
AGNT
WWAC
DNMR
SRLS
AAHE
TQQR
VTVG
CRCR
GTTP
NQMT
SDLQ
PCPI
AWPL
KSSV
LARI
PIGG
QDRG
SARD
SLWT
DRQT
CPVR
DAES
QTWM
MTYC
RVSG
PRYI
KLIG
KRSE
KQYR
KTDD
SPND
TFNR
DVET
SPCE
QNLR
ELKS
QVNA
NQVG
MVSW
TVWY
SNCR
TPIV
NPQP
SLET
CHSC
QERW
QEDR
HVEY
QKYF
CHIA
PHWV
MRLC
KYRG
AVTV
KAVT
DYWT
GMPD
SVNI
ISFE
GVQL
FTSW
TQAT
EASD
CDAE

one-hybrid fitness for binding NBS DNA, 0.337:
QHLT

one-hybrid fitness for binding NBS DNA, 0.691:
QMRS

one-hybrid fitness for binding NBS DNA, 0.383:
QVKY

one-hybrid fitness for binding NBS DNA, 0.614:
QCSR
